Experimental data taken from PubChem BioAssay AID504339 (National Center for Advancing Translational Sciences (NCATS), 2011).
“And” between values parts separate entries of the source, which are not always exact repeats. Identical values can stand only once. The whole screen tested about 390,000 compounds, of which about 17,000 (4.4%) were called active. This list was built around the results that the source calls inconclusive (neither active nor inactive); the mix of calls is not that of the screen. Calls come from the whole dose curve; as a rule, active = well fitted inhibition curve with a large enough effect; inconclusive = small, poorly fitted or top-dose-only effect; inactive = no such curve, though single readings can be large or run the other way. Potencies beside an inconclusive call are fits to weak or partial responses and may not hold up.

target: Lysine-specific demethylase 4A (Homo sapiens) (UniProt O75164); assay: qHTS Assay for Inhibitors of JMJD2A-Tudor Domain; details: AlphaScreen JMJD2A-Tudor / H3K4me3 peptide binding; series mostly up to 114 µM; note: nearly all actives have a fitted effect of over 50% in size
Potency is the fitted concentration of half-maximal effect; tags give direction and shape of the fitted curve.

Sequence of UniProt O75164 (O75164 whole entry, looked up, the tested form may be a part): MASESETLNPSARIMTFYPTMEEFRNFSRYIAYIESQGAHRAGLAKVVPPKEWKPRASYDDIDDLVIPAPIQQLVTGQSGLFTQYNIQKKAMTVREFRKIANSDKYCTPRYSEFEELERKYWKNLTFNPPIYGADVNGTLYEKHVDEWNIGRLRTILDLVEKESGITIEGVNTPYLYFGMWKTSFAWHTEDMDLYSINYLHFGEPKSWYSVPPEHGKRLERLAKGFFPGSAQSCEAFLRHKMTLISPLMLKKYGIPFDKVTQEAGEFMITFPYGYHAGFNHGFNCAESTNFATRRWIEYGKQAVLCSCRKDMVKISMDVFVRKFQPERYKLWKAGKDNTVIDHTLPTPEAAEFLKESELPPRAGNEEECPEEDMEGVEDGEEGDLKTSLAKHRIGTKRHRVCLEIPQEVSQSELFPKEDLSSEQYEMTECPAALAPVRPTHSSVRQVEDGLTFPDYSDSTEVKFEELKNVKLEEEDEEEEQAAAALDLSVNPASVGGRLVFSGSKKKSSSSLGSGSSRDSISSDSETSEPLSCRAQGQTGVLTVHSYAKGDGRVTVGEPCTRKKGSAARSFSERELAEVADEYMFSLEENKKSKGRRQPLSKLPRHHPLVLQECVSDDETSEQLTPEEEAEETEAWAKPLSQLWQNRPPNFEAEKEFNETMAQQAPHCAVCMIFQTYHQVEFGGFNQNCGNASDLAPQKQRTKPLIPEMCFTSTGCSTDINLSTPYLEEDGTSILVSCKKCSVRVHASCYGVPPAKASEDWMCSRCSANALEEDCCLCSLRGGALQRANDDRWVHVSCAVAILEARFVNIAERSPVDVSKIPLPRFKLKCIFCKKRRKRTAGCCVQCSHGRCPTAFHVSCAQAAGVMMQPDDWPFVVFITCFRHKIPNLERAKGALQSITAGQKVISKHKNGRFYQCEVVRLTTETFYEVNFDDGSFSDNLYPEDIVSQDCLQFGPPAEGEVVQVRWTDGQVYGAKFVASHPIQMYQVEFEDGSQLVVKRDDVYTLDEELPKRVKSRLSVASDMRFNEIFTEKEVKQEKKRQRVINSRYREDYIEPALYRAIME

Row | SMILES | Potency
1 | COc1cc(NC(=O)COC(=O)C2CC(O)CN2S(=O)(=O)c2ccc(Cl)cc2)c(C)cc1[N+](=O)[O-] (stereo unspecified) | inactive
2 | O=C(OC(c1ccccc1)c1nccc2ccccc12)c1cccc([N+](=O)[O-])c1 (stereo unspecified) | inconclusive: 35.5 µM [inhibitor, single point]
3 | CN(CCc1ccccn1)C1CC(=O)N(c2ccc(Cl)cc2)C1=O (stereo unspecified) | inactive
4 | Cn1cccc1Cc1nnc(SCC(=O)Nc2nccs2)n1CCc1ccccc1 | inconclusive: 70.8 µM [inhibitor, partial curve]
5 | O=C1/C(=C/c2cccc(O)c2)SC(=S)N1CC1CCCO1 (stereo unspecified) | inactive
6 | Cc1ccc(NC(=O)C2CCCN2S(=O)(=O)c2ccc3nc(-c4ccccc4)[nH]c3c2)cc1F (stereo unspecified) | inconclusive: 50.1 µM [inhibitor, partial curve]
7 | COc1ccc(S(=O)(=O)N2CCC(c3ccncc3)CC2)cc1OC | inactive
8 | COc1ccccc1N1CCN(C(=O)c2ccc3c(=O)n(Cc4ccc5c(c4)OCO5)c(=O)[nH]c3c2)CC1 | inactive
9 | CN(C(=O)COC(=O)CNC(=O)c1ccc(Cl)cc1Cl)c1ccccc1 | inactive
10 | COc1ccc(S(=O)(=O)NCC(c2ccc(N(C)C)cc2)N2CCc3ccccc32)cc1 (stereo unspecified) | active: 22.4 µM
11 | O=C(COC(=O)Cc1ccc(Cl)cc1)NCc1ccco1 | active: 56.2 µM
12 | CC(C)C(NC(=O)C1CCCCC1)C(=O)NC1=NCCS1 (stereo unspecified) | inconclusive: 39.8 µM [inhibitor, partial curve]
13 | Cn1cnc(C(=O)N2CCN(c3ccccc3)CC2)c1C(=O)N1CCN(c2ccccc2)CC1 | active: 28.2 µM
14 | O=C(CCc1nc2ccccc2[nH]1)Nc1ccc2c(c1)OCO2 | inconclusive: 89.1 µM [inhibitor, partial curve]
15 | O=C(c1ccc(S(=O)(=O)c2ccccc2Cl)c([N+](=O)[O-])c1)N1CCCCCC1 | inconclusive: 44.7 µM [inhibitor, partial curve]
16 | Cc1ccc2c(=O)cc(C(=O)Nc3ccc(S(=O)(=O)Nc4nc(C)cc(C)n4)cc3)oc2c1 | inactive
17 | Cc1ccc(N/N=C/c2ccc3c(c2)OCCO3)cc1Cl | inconclusive: 70.8 µM [inhibitor, single point]
18 | Cc1ccc(C(=O)NNC(=O)c2ccccc2)cc1S(=O)(=O)N1CCCCC1 | inactive
19 | COc1ccc(/C=C2\CN(Cc3ccccc3)C/C(=C\c3ccc(OC)cc3OC)C2=O)c(OC)c1 | inconclusive: 39.8 µM [inhibitor, partial curve]
20 | CCOC(=O)CSc1nc2c([nH]c3ccccc32)c(=O)n1-c1ccc(OC)cc1 | active: 20 µM
21 | CCOc1ccccc1N1CCN(C(=O)c2cc3cc(OC)ccc3[nH]2)CC1 | inconclusive: 79.4 µM [inhibitor, partial curve]
22 | C=CCn1c(C(CCCC)CC(O)COCC(C)C)n[nH]c1=S (stereo unspecified) | active: 39.8 µM
23 | COc1ccc(NC(=O)CSc2nncc(=O)n2N)cc1OC | inactive
24 | O=C(CN(CCc1ccccc1)S(=O)(=O)c1ccc(Br)cc1)NCc1ccc(Cl)cc1 | active: 14.1 µM

Row | SMILES | Potency
25 | OC(COC(c1ccc(Cl)cc1)c1ccc(Cl)cc1)CN1CCN(c2ccccn2)CC1 (stereo unspecified) | inconclusive: 44.7 µM [inhibitor, partial curve]
26 | CC(=O)Oc1cc2c(cc1Cl)C1(CC(c3ccccc3Cl)O2)CC(C)(C)NC(=S)N1 (stereo unspecified) | inconclusive: 56.2 µM [inhibitor, partial curve]
27 | CCOC(=O)c1cccc(NC(=O)CCc2c(C)nn(-c3ccc(N4CCCC4)nn3)c2C)c1 | inactive
28 | COc1cc(C)c(NC(c2ccccc2)c2ccccc2)cc1OC | active: 44.7 µM
29 | O=C(N/N=C/c1cccc(OC(=O)c2cccc(Br)c2)c1)c1ccncc1 | inconclusive: 50.1 µM [inhibitor, full curve, poor fit]
30 | CC1=C(C(=O)Nc2ccccn2)C(c2ccccc2Cl)NC(=S)N1 (stereo unspecified) | inactive
31 | CCCCN(CCCC)CCNC(=O)c1cn(CC)c2ccc(S(=O)(=O)N3CCc4ccccc4C3)cc2c1=O | inactive and inconclusive: 39.8 µM [inhibitor, partial curve]
32 | COc1ccc(N2CCN(Cc3oc(CO)cc(=O)c3O)CC2)cc1 | inconclusive: 89.1 µM [inhibitor, single point]
33 | COc1ccccc1-n1c(=O)c2c3c(sc2n(C)c1=O)CN(C(C)=O)CC3 | inactive
34 | CCNS(=O)(=O)c1ccc(Br)c(C(=O)OC(C)C(=O)NCC2CCCCC2)c1 (stereo unspecified) | inactive
35 | Nc1cc(S(=O)(=O)N2CCOCC2)ccc1Oc1cccc(Br)c1 | inconclusive: 31.6 µM [inhibitor, partial curve]
36 | COc1ccc(-c2csc(NC(=O)CSc3ccc(Br)cc3)n2)c(OC)c1 | inactive
37 | Cc1ccc(-n2cc(-c3ccccc3)c3c(NN4CCOCC4)ncnc32)cc1 | inconclusive: 44.7 µM [inhibitor, partial curve]
38 | CCOc1cc(C(=O)Nc2ccc(C)cc2C)ccc1OCC(=O)N1CCCCC1 | inactive
39 | Cc1ccc2c(c1)N(C)/C(=C/c1cccc[n+]1CCO)S2 | inconclusive: 44.7 µM [inhibitor, partial curve, poor fit]
40 | COc1ccc2c(c1OC)C(=O)N(c1ccc(C)cc1)C2 | inconclusive: 17.8 µM [inhibitor, partial curve]
41 | COc1cc(O)c(C(CCN2CCCC2)c2ccc3c(c2)OCO3)c(OC)c1 (stereo unspecified) | inconclusive: 63.1 µM [inhibitor, partial curve] and inconclusive: 44.7 µM [inhibitor, partial curve]
42 | CN1CCN(CCOC2Cc3ccccc3Sc3ccc(Cl)cc32)CC1 (stereo unspecified) | inconclusive: 56.2 µM [inhibitor, partial curve]
43 | O=C(O)CSc1nc2ccccc2[nH]1 | inconclusive: 39.8 µM [inhibitor, single point]
44 | C=CCn1c(O)c(CN2CCN(Cc3ccccc3)CC2)c(C)c(C#N)c1=O | inconclusive: 89.1 µM [inhibitor, single point]
45 | O=[N+]([O-])c1cc([N+](=O)[O-])c(Oc2c(F)cccc2F)cc1NN1CCCCC1 | inconclusive: 39.8 µM [inhibitor, partial curve]
46 | CN(C)CCCN1c2ccccc2Sc2ccc(C(F)(F)F)cc21 | inconclusive: 56.2 µM [inhibitor, partial curve, poor fit]
47 | C[C@H](/C=C/[C@@]1(O)[C@H](C)C[C@H](O)CC1(C)C)O[C@@H]1O[C@H](CO)[C@@H](O)[C@H](O)[C@H]1O | inactive
48 | CCOC(=O)/C(=C\c1ccc([N+](=O)[O-])cc1)C(=O)c1cc(C(C)=O)c(Nc2ccccc2)s1 | inconclusive: 4.47 µM [inhibitor, full curve]

Row | SMILES | Potency
49 | COC(=O)c1cc2c(ccn2-c2ccc(F)cc2)n1Cc1ccc(OC(C)=O)cc1 | inconclusive: 25.1 µM [inhibitor, full curve]
50 | CCCCNC(=O)c1ccc2nc(-c3ccco3)c(-c3ccco3)nc2c1 | active: 25.1 µM
51 | COc1ccc(-c2cc(C(F)(F)F)n3nc(C(=O)NCCCn4ccnc4)cc3n2)cc1 | inconclusive: 89.1 µM [inhibitor, single point]
52 | Nc1ccc(C(=O)N/N=C/c2cn(Cc3ccc(F)cc3)c3ccccc23)cc1 | inconclusive: 89.1 µM [inhibitor, partial curve]
53 | CCOC(=O)c1c(C)sc(-c2c(-c3cc(C)ccc3C)[nH]c3c2c(=O)n(C)c(=O)n3C)c1O | inconclusive: 50.1 µM [inhibitor, partial curve]
54 | O=C(c1cccc(F)c1)N1CCC(N2CCCCCC2)CC1 | active: 2.24 µM
55 | CCCOc1ccc(C2Nc3cccc4cccc(c34)N2)cc1 | active: 39.8 µM
56 | Cc1ccc(Nc2nc(N)c([N+](=O)[O-])c(NCc3ccco3)n2)cc1C | inconclusive: 17.8 µM [inhibitor, full curve]
57 | COc1ccc(NC(=O)c2cccnc2)c(OC)c1 | inactive
58 | CCCN(CCC)CCNC(=O)c1cc2c(-c3ccc(Cl)cc3)nn(C)c2s1 | inconclusive: 44.7 µM [inhibitor, partial curve]
59 | CC1(C)Cc2c(C#N)c(N3CCN(C(=O)c4ccccc4Cl)CC3)nc(-c3ccco3)c2CS1 | inconclusive: 56.2 µM [inhibitor, partial curve]
60 | O=C(Cc1cccc(NC(=O)C2CCN(S(=O)(=O)c3cccc([N+](=O)[O-])c3)CC2)c1)Nc1cccc(C(=O)N2CCCCC2)c1 | inactive
61 | COCCNC(=O)C(c1ccc(C)cc1)N(C(=O)CCC(=O)Nc1ccccn1)c1ccccc1C (stereo unspecified) | inactive
62 | CCOc1ccccc1NC(=O)N1CCN(C)c2ncccc21 | inactive
63 | CCCCCCCCCCCCCCCC[n+]1ccc(C(N)=O)cc1 | inconclusive: 39.8 µM [inhibitor, single point]
64 | O=c1c2ccccc2cnn1Cc1n[nH]c(=S)n1-c1ccccc1F | inconclusive: 89.1 µM [inhibitor, single point]
65 | CC(C)(C)C(=O)Nc1ccc2c(c1)C(=O)C(=O)c1ccccc1-2 | inactive
66 | Cc1[nH]n(-c2ccccc2)c(=O)c1N=Nc1ccccc1 | active: 11.2 µM
67 | C/C(=N/NC(=O)c1ccn(C)n1)c1ccncc1 | inactive
68 | Oc1ccc(N2CCN(C(=S)NCc3ccccc3)CC2)cc1 | inconclusive: 79.4 µM [inhibitor, partial curve]
69 | Cc1cc(C(=O)Nc2c(F)cc(F)cc2Br)c(C)o1 | inactive
70 | CC1CCN(C(=O)COC(=O)/C=C/c2ccc(Br)o2)CC1 | inactive
71 | COc1ccc(NC(=O)c2ccccn2)cc1 | inconclusive: 17.8 µM [inhibitor, partial curve]
